From the supplement of paper PMC6089552
Values joined by “and” are separate entries in the source; they are usually repeats but may differ in a detail not shown here. Equal values may be shown once. In all, about 3,200 compounds went through this assay and about 300 (9.4%) showed activity. The entries are a selection whose mix differs from that of the whole data set.

System: A673/TR/shEF
Assay: cell viability (LOESS-normalised, relative to median of negative controls) (log2 ratio); higher = more viable cells (less compound effect), active = hit call of the paper (over 3 MAD below the median)
Conditions: treatment time: 72 h
Method in brief: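 For three days, A673/TR/shEF Ewing sarcoma cells in 384-well plates (1,500 per well) were treated with library compounds at two or more concentrations or with DMSO controls, after doxycycline had been added or withheld 24 h beforehand to induce EWS-FLI1 shRNA knockdown. Viability was read by CellTiter-Glo luminescence on an Envision reader. The data were LOESS-corrected per plate, divided by the median of negative controls and log2-transformed.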

[1] = 0.25 µM, library screen: screen2, EWS-FLI1 expression: high (no doxycycline)
[2] = 0.25 µM, library screen: screen2, EWS-FLI1 expression: low (doxycycline-induced shRNA knockdown)
[3] = 2.5 µM, library screen: screen2, EWS-FLI1 expression: high (no doxycycline)
[4] = 2.5 µM, library screen: screen2, EWS-FLI1 expression: low (doxycycline-induced shRNA knockdown)
[5] = 0.25 µM, library screen: screen1, EWS-FLI1 expression: high (no doxycycline)
[6] = 0.25 µM, library screen: screen1, EWS-FLI1 expression: low (doxycycline-induced shRNA knockdown)
[7] = 2.5 µM, library screen: screen1, EWS-FLI1 expression: high (no doxycycline)
[8] = 2.5 µM, library screen: screen1, EWS-FLI1 expression: low (doxycycline-induced shRNA knockdown)

Measured: cell viability (log2)

COc1cc(C[C@@H](C)N)c(OC)cc1I
inactive: [1] 0.178 | [2] 0.0876 | [3] 0.142 | [4] 0.145

C=CCN1C[C@@H](C)N([C@H](c2ccc(C(=O)N(CC)CC)cc2)c2cccc(OC)c2)C[C@@H]1C
inactive: [1] 0.0848 | [2] 0.0464 | [3] 0.222 | [4] 0.00445

CN1[C@@H]2CC[C@H]1CC(OC(=O)[C@H](CO)c1ccccc1)C2 (stereo partly drawn)
inactive: [5] 0.0597 | [6] -0.0491 | [1] 0.249 | [2] 0.0903 | [7] 0.131 | [8] 0.0464 | [3] 0.139 | [4] 0.132

C=C(C)[C@H]1CN[C@H](C(=O)O)[C@H]1CC(=O)O
inactive: [5] 0.0504 | [6] -0.013 | [1] 0.231 | [2] 0.11 | [7] 0.153 | [8] -0.00319 | [3] 0.0794 | [4] -0.00687

NC1CC1c1ccccc1 (stereo not drawn)
inactive: [5] 0.107 | [6] 0.128 | [7] 0.188 | [8] 0.0868

Cc1cccc(CN2CCN(Cc3ccc(F)cc3)CC2)c1
inactive: [5] 0.0688 | [6] 0.0518 | [7] 0.143 | [8] 0.0989

CC(=O)O[C@H]1C[C@@H](OC(C)=O)C(C)(C)C2C[C@@H](OC(C)=O)[C@]3(C)C(CC[C@@]4(C)[C@H](c5ccoc5)C(=O)[C@H]5O[C@]543)[C@]21C (stereo partly drawn)
inactive: [5] 0.0663 | [6] 0.135 | [7] 0.0399 | [8] 0.171

N[C@@H](Cn1ccc(=O)[nH]c1=O)C(=O)O
inactive: [1] 0.256 | [2] -0.00427 | [3] 0.176 | [4] 0.041

CCCN(CCC)c1c([N+](=O)[O-])cc(C(F)(F)F)cc1[N+](=O)[O-]
inactive: [5] -0.0384 | [6] 0.0507 | [7] 0.104 | [8] 0.107

CC12CCC3C(CCC4=C(O)C(=O)CCC43C)C1CCC2=O (stereo not drawn)
inactive: [1] 0.133 | [2] 0.16 | [3] 0.095 | [4] 0.142

Cc1cc(O)ccc1Cl
inactive: [5] 0.0343 | [6] 0.147 | [7] 0.121 | [8] 0.0456

O=[N+]([O-])c1cc(O)c(O)c([N+](=O)[O-])c1
inactive: [5] 0.0922 | [6] 0.102 | [1] 0.101 | [2] 0.11 | [7] 0.0178 | [8] 0.0631 | [3] 0.139 | [4] 0.0735

CN[C@@H]1C[C@@H](c2ccc(Cl)c(Cl)c2)c2ccccc21
inactive: [1] 0.0875 | [2] 0.13 | [3] 0.173 | [4] 0.199

COC1C[C@H](O[C@H]2CC[C@]3(C)C4CC[C@]5(C)[C@@H](C6=CC(=O)OC6)CC[C@]5(O)C4CC[C@]3(O)C2)OC(C)[C@H]1O (stereo partly drawn)
active: [5] -0.209 | [6] -0.262 | [7] -3.79 | [8] -2.17

NCCc1ccc(S(=O)(=O)F)cc1
active: [1] -0.0889
inactive: [2] 0.067 | [3] -0.0377 | [4] 0.0161

CCOP(=S)(OCC)SCSP(=S)(OCC)OCC
inactive: [5] 0.0176 | [6] 0.0157 | [7] 0.0447 | [8] 0.0694

C[C@H](N)[C@H](O)c1ccc(O)c(O)c1
inactive: [5] 0.0607 | [6] 0.115 | [7] 0.154 | [8] 0.141

CC[C@@]1(O)C[C@H](O[C@H]2C[C@H](N(C)C)[C@H](O)[C@H](C)O2)c2c(cc3c(c2O)C(=O)c2c(O)cccc2C3=O)[C@H]1C(=O)OC
active: [7] -1.99 and -0.594 | [8] -0.405 and -0.193

CC(C)N(CCC(C(N)=O)(c1ccccc1)c1ccccn1)C(C)C (stereo not drawn)
inactive: [5] 0.118 | [6] 0.068 | [1] 0.102 | [2] 0.0965 | [7] 0.167 | [8] 0.146 | [3] 0.0737 | [4] 0.0918

COC(=O)/C(C)=C\CC12OC(C)(C)C3CC(C=C4C(=O)c5c(OC)c6c(c(CC=C(C)C)c5OC431)OC(C)(CCC=C(C)C)C=C6)C2=O (stereo not drawn)
active: [7] -4.2 | [8] -3.74

OC1CCCCC1N1CCC(c2ccccc2)CC1 (stereo not drawn)
inactive: [5] 0.0599 | [6] 0.121 | [1] 0.0428 | [2] 0.0615 | [7] 0.141 | [8] 0.21 | [3] 0.252 | [4] 0.0803

N[C@@H](Cc1ccc(N(CCCl)CCCl)cc1)C(=O)O
inactive: [5] 0.0874 | [6] 0.0161 | [1] 0.175 | [2] 0.17 | [7] 0.00755 | [8] 0.0488 | [3] 0.22 | [4] 0.172
